In paper PMC9911399, “Two distinct binding modes provide the RNA-binding protein RbFox with extraordinary sequence specificity” one finds binding signal data, which are given here for 20 molecules.

Numbering of substitutions follows the chain as printed; changes in the protein carry UniProt numbers. The list shows a part of the results.

First the molecules themselves.
T1: RBFOX1 RRM RbFoxmut (Fox-RRM*) (Homo sapiens, UniProt Q9NWB1 109-208, R118D;E147R;N151S;E152T)
T1 sequence: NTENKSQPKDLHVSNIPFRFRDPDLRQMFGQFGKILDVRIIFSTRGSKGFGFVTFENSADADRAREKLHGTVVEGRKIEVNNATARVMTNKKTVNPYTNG

B1: GCUUCUG (DNA:RNA)
RNA: GGGAGACCGGAAUUCAGAUUGUCCGCUUCUGUUAAAUCCCGUCGUAGCCACCA
DNA 1: CAATCTGAATTCCGGTCTCCC
DNA 2: TGGTGGCTACGACGGGATT
B2: UUCGGUG (DNA:RNA)
RNA: B1 RNA with G25U, C26U, U27C, U28G, C29G
DNA 1: CAATCTGAATTCCGGTCTCCC
DNA 2: TGGTGGCTACGACGGGATT
B3: GGGGGUC (DNA:RNA)
RNA: B1 RNA with C26G, U27G, U28G, C29G, G31C
DNA 1: CAATCTGAATTCCGGTCTCCC
DNA 2: TGGTGGCTACGACGGGATT
B4: CCACUGG (DNA:RNA)
RNA: B1 RNA with G25C, U27A, U28C, C29U, U30G
DNA 1: CAATCTGAATTCCGGTCTCCC
DNA 2: TGGTGGCTACGACGGGATT
B5: CAGACGU (DNA:RNA)
RNA: B1 RNA with G25C, C26A, U27G, U28A, U30G, G31U
DNA 1: CAATCTGAATTCCGGTCTCCC
DNA 2: TGGTGGCTACGACGGGATT
B6: AAACAAU (DNA:RNA)
RNA: GGGAGACCGGAAUUCAGAUUGUCCAAACAAUUUAAAUCCCGUCGUAGCCACCA
DNA 1: CAATCTGAATTCCGGTCTCCC
DNA 2: TGGTGGCTACGACGGGATT
B7: AGAUCCC (DNA:RNA)
RNA: B6 RNA with A26G, C28U, A29C, A30C, U31C
DNA 1: CAATCTGAATTCCGGTCTCCC
DNA 2: TGGTGGCTACGACGGGATT
B8: CUGAGCU (DNA:RNA)
RNA: B6 RNA with A25C, A26U, A27G, C28A, A29G, A30C
DNA 1: CAATCTGAATTCCGGTCTCCC
DNA 2: TGGTGGCTACGACGGGATT
B9: CAUUUAG (DNA:RNA)
RNA: B1 RNA with G25C, C26A, C29U, U30A
DNA 1: CAATCTGAATTCCGGTCTCCC
DNA 2: TGGTGGCTACGACGGGATT
B10: UAUCGGC (DNA:RNA)
RNA: B6 RNA with A25U, A27U, A29G, A30G, U31C
DNA 1: CAATCTGAATTCCGGTCTCCC
DNA 2: TGGTGGCTACGACGGGATT
B11: UCGCCGA (DNA:RNA)
RNA: B1 RNA with G25U, U27G, U28C, U30G, G31A
DNA 1: CAATCTGAATTCCGGTCTCCC
DNA 2: TGGTGGCTACGACGGGATT
B12: ACACCUU (DNA:RNA)
RNA: B6 RNA with A26C, A29C, A30U
DNA 1: CAATCTGAATTCCGGTCTCCC
DNA 2: TGGTGGCTACGACGGGATT
B13: GGCUACU (DNA:RNA)
RNA: B6 RNA with A25G, A26G, A27C, C28U, A30C
DNA 1: CAATCTGAATTCCGGTCTCCC
DNA 2: TGGTGGCTACGACGGGATT
B14: UAACGUU (DNA:RNA)
RNA: B6 RNA with A25U, A29G, A30U
DNA 1: CAATCTGAATTCCGGTCTCCC
DNA 2: TGGTGGCTACGACGGGATT
B15: GCCAAGA (DNA:RNA)
RNA: B1 RNA with U27C, U28A, C29A, U30G, G31A
DNA 1: CAATCTGAATTCCGGTCTCCC
DNA 2: TGGTGGCTACGACGGGATT
B16: GCUGGUA (DNA:RNA)
RNA: B1 RNA with U28G, C29G, G31A
DNA 1: CAATCTGAATTCCGGTCTCCC
DNA 2: TGGTGGCTACGACGGGATT
B17: GUACGCG (DNA:RNA)
RNA: B6 RNA with A25G, A26U, A29G, A30C, U31G
DNA 1: CAATCTGAATTCCGGTCTCCC
DNA 2: TGGTGGCTACGACGGGATT
B18: AUGAGAC (DNA:RNA)
RNA: B6 RNA with A26U, A27G, C28A, A29G, U31C
DNA 1: CAATCTGAATTCCGGTCTCCC
DNA 2: TGGTGGCTACGACGGGATT
B19: UAGUCUA (DNA:RNA)
RNA: B1 RNA with G25U, C26A, U27G, G31A
DNA 1: CAATCTGAATTCCGGTCTCCC
DNA 2: TGGTGGCTACGACGGGATT
B20: UACAGUC (DNA:RNA)
RNA: B6 RNA with A25U, A27C, C28A, A29G, A30U, U31C
DNA 1: CAATCTGAATTCCGGTCTCCC
DNA 2: TGGTGGCTACGACGGGATT

In the assay the target is T1, RBFOX1 RRM RbFoxmut (Fox-RRM*). Kind of assay: EMSA; HiTS-Eq, 1 nM pool, 10 min; buffer printed only for the single-RNA assays: 10 mM Tris pH 7.5, 150 mM NaCl, 3.4 mM EDTA, 0.001% NP-40, 30 C. Particulars: tags: His6 N-terminal (pET28a); label: 5' 32P. The method, boiled down:
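Purified RbFox RRM, wild type or mutant, was incubated for 10 min in 50 µL with 1 nM of a 5′-radiolabelled RNA pool carrying 7 randomized nucleotides, whose flanks were annealed to DNA oligonucleotides, over a series of increasing protein concentrations. Unbound RNA was resolved on 8% native PAGE, cut out, reverse-transcribed, barcoded by PCR and sequenced on an Illumina HiSeq 2500. Relative association constants were derived from changes in read counts for each RNA species versus the control reaction and normalised to the cognate motif.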
(In EMSA bound probe runs differently from free probe, usually more slowly.)
Turning to B1, the binding signal is 0.0878 KA relative to UGCAUGU.

For B2, the binding signal was 0.0922 KA relative to UGCAUGU.

As for B3, the binding signal is 0.201 KA relative to UGCAUGU.

Take B4: the binding signal was 0.0937 KA relative to UGCAUGU.

Regarding B5, the binding signal was 0.0577 KA relative to UGCAUGU.

B6: the binding signal was 0.045 KA relative to UGCAUGU.

Regarding B7, the binding signal is 0.046 KA relative to UGCAUGU.

As for B8, the binding signal is 0.0888 KA relative to UGCAUGU.

Regarding B9, the binding signal is 0.152 KA relative to UGCAUGU.

In the case of B10, the binding signal was 0.0946 KA relative to UGCAUGU.

Regarding B11, the binding signal was 0.0565 KA relative to UGCAUGU.

Regarding B12, the binding signal is 0.0737 KA relative to UGCAUGU.

Consider B13, for which the binding signal was 0.0816 KA relative to UGCAUGU.

Consider B14, for which the binding signal is 0.064 KA relative to UGCAUGU.

As for B15, the binding signal is 0.0658 KA relative to UGCAUGU.

Turning to B16, the binding signal was 0.188 KA relative to UGCAUGU.

On to B17, for which the binding signal is 0.138 KA relative to UGCAUGU.

Regarding B18, the binding signal was 0.0801 KA relative to UGCAUGU.

In the case of B19, the binding signal is 0.0925 KA relative to UGCAUGU.

On to B20, for which the binding signal is 0.0558 KA relative to UGCAUGU.
